# Data taken from the supplement of paper PMC8728848.
# Some of the results follow.
# What was measured:
# Experiment in all cases: glycan array binding signal (z-score within array); higher = stronger binding
# Conditions in all cases: glycan notation: IUPAC condensed, linker removed
# [1] = biological target: Neu5Ac(a2-3)Gal(b1-4)GlcNAc(b1-3)[Neu5Ac(a2-3)Gal(b1-4)GlcNAc(b1-6)]GalNAc
# Method in brief: (§1)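 Arrays were curated from the Consortium for Functional Glycomics database, 3228 in total, and kept only where the protein sequence was available. Binding is expressed as a within-array Z-score. This score was averaged across arrays of the same protein sequence at different concentrations or buffers and across linkers, and negative values can be read as non-binding.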
# [2] = biological target: Neu5Ac(a2-3)Gal(b1-4)GlcNAc(b1-6)GalNAc
# Method in brief: as §1
# [3] = biological target: Neu5Ac(a2-3)Gal(b1-4)GlcNAc(b1-6)[Gal(b1-3)]GalNAc
# Method in brief: as §1
# [4] = biological target: Neu5Ac(a2-3)Gal(b1-4)GlcNAc(b1-6)[Neu5Ac(a2-3)Gal(b1-3)]GalNAc
# Method in brief: as §1
# [5] = biological target: Neu5Ac(a2-3)Gal(b1-4)GlcNAc6S
# Method in brief: as §1
# [6] = biological target: Neu5Ac(a2-3)Gal(b1-4)[Fuc(a1-3)]GlcNAc
# Method in brief: as §1
# [7] = biological target: Neu5Ac(a2-3)Gal(b1-4)[Fuc(a1-3)]GlcNAc(b1-2)Man
# Method in brief: as §1
# [8] = biological target: Neu5Ac(a2-3)Gal(b1-4)[Fuc(a1-3)]GlcNAc(b1-3)Gal
# Method in brief: as §1
# [9] = biological target: Neu5Ac(a2-3)Gal(b1-4)[Fuc(a1-3)]GlcNAc(b1-3)Gal(b1-4)GlcNAc
# Method in brief: as §1
# [10] = biological target: Neu5Ac(a2-3)Gal(b1-4)[Fuc(a1-3)]GlcNAc(b1-3)Gal(b1-4)[Fuc(a1-3)]GlcNAc(b1-3)Gal(b1-4)[Fuc(a1-3)]GlcNAc
# Method in brief: as §1
# [11] = biological target: Neu5Ac(a2-3)Gal(b1-4)[Fuc(a1-3)]GlcNAc(b1-3)GalNAc
# Method in brief: as §1
# [12] = biological target: Neu5Ac(a2-3)Gal(b1-4)[Fuc(a1-3)]GlcNAc(b1-6)[Gal(b1-3)]GalNAc
# Method in brief: as §1
# [13] = biological target: Neu5Ac(a2-3)Gal(b1-4)[Fuc(a1-3)]GlcNAc(b1-6)[Neu5Ac(a2-3)Gal(b1-3)]GalNAc
# Method in brief: as §1
# [14] = biological target: Neu5Ac(a2-3)Gal(b1-4)[Fuc(a1-3)]GlcNAc6S
# Method in brief: as §1
# [15] = biological target: Neu5Ac(a2-3)Gal6S(b1-4)GlcNAc
# Method in brief: as §1
# [16] = biological target: Neu5Ac(a2-3)Gal6S(b1-4)[Fuc(a1-3)]GlcNAc
# Method in brief: as §1
# Neu5Ac(a2-3)GalNAc = biological target: Neu5Ac(a2-3)GalNAc
# Method in brief: as §1
# [17] = biological target: Neu5Ac(a2-3)GalNAc(b1-4)GlcNAc
# Method in brief: as §1
# [18] = biological target: Neu5Ac(a2-3)[GalNAc(b1-4)]Gal(b1-4)Glc
# Method in brief: as §1
# [19] = biological target: Neu5Ac(a2-3)[GalNAc(b1-4)]Gal(b1-4)GlcNAc
# Method in brief: as §1
# [20] = biological target: Neu5Ac(a2-3)[GalNAc(b1-4)]Gal(b1-4)GlcNAc(b1-3)GalNAc
# Method in brief: as §1
# [21] = biological target: Neu5Ac(a2-3)[Neu5Ac(a2-6)]GalNAc
# Method in brief: as §1
# Neu5Ac(a2-6)Gal = biological target: Neu5Ac(a2-6)Gal
# Method in brief: as §1
# [22] = biological target: Neu5Ac(a2-6)Gal(b1-3)GlcNAc(b1-3)[Gal(b1-4)GlcNAc(b1-6)]Gal(b1-4)Glc
# Method in brief: as §1
# Neu5Ac(a2-6)Gal(b1-4)Glc = biological target: Neu5Ac(a2-6)Gal(b1-4)Glc
# Method in brief: as §1
# [23] = biological target: Neu5Ac(a2-6)Gal(b1-4)GlcNAc
# Method in brief: as §1
# [24] = biological target: Neu5Ac(a2-6)Gal(b1-4)GlcNAc(b1-2)Man
# Method in brief: as §1
# [25] = biological target: Neu5Ac(a2-6)Gal(b1-4)GlcNAc(b1-2)Man(a1-3)Man(b1-4)GlcNAc(b1-4)GlcNAc
# Method in brief: as §1
# [26] = biological target: Neu5Ac(a2-6)Gal(b1-4)GlcNAc(b1-2)Man(a1-3)[Gal(b1-4)GlcNAc(b1-2)Man(a1-6)]Man(b1-4)GlcNAc(b1-4)GlcNAc
# Method in brief: as §1
# [27] = biological target: Neu5Ac(a2-6)Gal(b1-4)GlcNAc(b1-2)Man(a1-3)[GlcNAc(b1-2)Man(a1-6)]Man(b1-4)GlcNAc(b1-4)GlcNAc
# Method in brief: as §1
# [28] = biological target: Neu5Ac(a2-6)Gal(b1-4)GlcNAc(b1-2)Man(a1-3)[GlcNAc(b1-4)][Neu5Ac(a2-6)Gal(b1-4)GlcNAc(b1-2)Man(a1-6)]Man(b1-4)GlcNAc(b1-4)GlcNAc
# Method in brief: as §1
binder,measurement,setting,value
"Epa7 (Candida glabrata), Q6DTM6_CANGB (protein) MGSSHHHHHHSSGLVPRGSHMKDDYSSFLSNNNLGWTDPTEFPLGCSPNVTTPKNGLSMELYSYDLRKNGSYPCWDAAYLDPNYPRTGYKSHRLLAKVDGVTGNINFYYHATKGCTPEIDHLPASYNYPKPLTMTNFTMLLYGYFKPKVTGYHTFTISADDLLFVNFGAGNAFDCCKRESSADDFGNYQAYAVWGSQTAKDDLTVHLDAGLYYPIRIFFNNREYDAELSLTLKTESDSNPVIDFSDYFYSFDDTKDGCPGLVSYDTS",glycan array binding signal (z-score),[1],-0.242
same,glycan array binding signal (z-score),[2],-0.229
same,glycan array binding signal (z-score),[3],0.846
same,glycan array binding signal (z-score),[4],-0.181
same,glycan array binding signal (z-score),[5],-0.257
same,glycan array binding signal (z-score),[6],-0.26
same,glycan array binding signal (z-score),[7],-0.218
same,glycan array binding signal (z-score),[8],-0.263
same,glycan array binding signal (z-score),[9],-0.189
same,glycan array binding signal (z-score),[10],-0.253
same,glycan array binding signal (z-score),[11],0.024
same,glycan array binding signal (z-score),[12],0.218
same,glycan array binding signal (z-score),[13],-0.087
same,glycan array binding signal (z-score),[14],-0.259
same,glycan array binding signal (z-score),[15],-0.251
same,glycan array binding signal (z-score),[16],-0.259
same,glycan array binding signal (z-score),Neu5Ac(a2-3)GalNAc,-0.261
same,glycan array binding signal (z-score),[17],-0.26
same,glycan array binding signal (z-score),[18],-0.265
same,glycan array binding signal (z-score),[19],-0.257
same,glycan array binding signal (z-score),[20],-0.231
same,glycan array binding signal (z-score),[21],-0.261
same,glycan array binding signal (z-score),Neu5Ac(a2-6)Gal,-0.228
same,glycan array binding signal (z-score),[22],-0.076
same,glycan array binding signal (z-score),Neu5Ac(a2-6)Gal(b1-4)Glc,-0.223
same,glycan array binding signal (z-score),[23],-0.259
same,glycan array binding signal (z-score),[24],-0.24
same,glycan array binding signal (z-score),[25],-0.24
same,glycan array binding signal (z-score),[26],-0.228
same,glycan array binding signal (z-score),[27],-0.214
same,glycan array binding signal (z-score),[28],-0.231
